Laboratory results as given in the supplement of paper PMC11417369.
± gives the standard deviation of the averaged measurements. This is one part of the list.

System: PfAP2-LT AP2 domain (GST-tagged)
Experiment: gcPBM binding intensity (ln(normalized median fluorescence intensity)); higher = stronger DNA binding
Summary of the method: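 GST-fused DNA-binding domains of P. falciparum, expressed in E. coli, were applied at about 25 μg on average for 1 h to an Agilent 4 × 180k array of primer-extended double-stranded 36-bp intergenic genomic probes and negative controls. Binding intensity is the highest Masliner-normalised natural-log median intensity across replicate spots of either probe orientation, measured with Alexa488 anti-GST antibody and a 488 nm scan.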

Sequence | gcPBM binding intensity (ln)
ATGGACAAGTTAAACGCACACAAATATATACAGACA [CACACA_site1652] | 9.63 ± 0.47
GTTTATGTATTATTATGTACGTATCATAATATATAT [XGTACX_site2385] | 8.99 ± 0.41
TAATATGAAATGTGTACACACGCACCCACAAAAAAA [CACACA_site8949] | 9.36 ± 0.35
TCTGTAAACATATTCACACACATAAATTCGCATATA [CACACA_site1866] | 9.17 ± 0.27
ACAAAATAATTGTTTACACACCCATTTGTAATTTTA [CACACA_site3615] | 8.84 ± 0.42
GAAAATTTATATTGCACACATAGGGAATAAAAAAAA [CACACA_site2146] | 9.13 ± 0.42
TATCATTGTTCATGCTTGCACTTTTGTTACTGTTCC [GTGCAC_site9425] | 9.04 ± 0.52
TGTATGAAAATAAATGCATGCCAAATATATATATAT [TGCATGCA_site132] | 9.165 ± 0.078
AAAATGAAATATGTTATATATATATATATATATATA [CACACA_negctrl_site1752] | 9.48 ± 0.14
AAGAAGAAACGGAAAAGTACAAAGAAGAAATAAGTA [XGTACX_site3680] | 9.05 ± 0.64
CTTACAGACATATATACACACATGTATATTTTATAT [CACACA_site549] | 9.12 ± 0.35
ATGTTTTTAATTTATTGTACATTAATTTGTATTATT [XGTACX_site253] | 9.07 ± 0.55
TTTTCTTTTCTCTTCTTTTTCTCCCATTATTAATCT [XGTACX_negctrl_site406] | 8.6 ± 0.67
GAGGATGCCTATGGCACACATTATAAAACTGTCGCT [CACACA_site4322] | 8.92 ± 0.45
TTTTTATTATTTAAATGTACATATAAATATATATAT [XGTACX_site6870] | 8.53 ± 0.4
GAATAAAAATTTTAATGTACATATTTTTTATTTATA [XGTACX_site8935] | 8.41 ± 0.49
ATATTTTATATGTTCACACATACATAAACATATTTT [CACACA_site4948] | 8.83 ± 0.41
GGTAGTTATTATCTCCGTACTTATAAAGAAAAAAGG [XGTACX_site4674] | 8.57 ± 0.48
TTTATTTTCATATGAACACACATATAAATATTATAA [CACACA_site7172] | 8.69 ± 0.54

Sequence | gcPBM binding intensity (ln)
TACAAATATATAAAATGTACATATATATACATATTA [XGTACX_site3029] | 8.63 ± 0.38
CATAAAATTGTGAAGTGTACATATTTTTAAATATAA [XGTACX_site8986] | 8.65 ± 0.47
ATATATAATATAAGATGTACAATAAAATCTATATAT [XGTACX_site546] | 8.87 ± 0.53
ATAACTTTATTTTCCTGTACACACATTTGACATATT [XGTACX_site7192] | 9.38 ± 0.4
AGAAATATCTAATTGTGTACTCAAGAAAAAGTTACG [XGTACX_site372] | 8.65 ± 0.47
TATATATCGCATAAAACACACAAAAAAAAAATTAAA [CACACA_site7767] | 8.84 ± 0.51
TTATATTCTATTTATTGTACTTAAATATATATATAT [XGTACX_site6400] | 8.7 ± 0.42
ATATATATCTTTTGTGTGCACATATATATAATATAT | 9.79 ± 0.31
AAAAAAAAAATATACACACACACATACACATAAATA [CACACA_site3808] | 9.92 ± 0.21
TATTTTCCCTCCATATGTACTTAATTATAAGCACAT [XGTACX_site4000] | 8.82 ± 0.35
ATTTCATTTATAAGGATATCTACTTTTTATTTTAAT [GTGCAC_negctrl_site59] | 8.58 ± 0.51
TCTATCTTTTCCAAACGTACATTTTTTATATAAATT [XGTACX_site5352] | 8.63 ± 0.42
AAACGAAAAAAATGGTGTACATTAAAATGAAAATTG [XGTACX_site7040] | 8.88 ± 0.62
TTTTTTTTCCTAATGTGTACTAAAAATGAACAATAA [XGTACX_site5248] | 8.15 ± 0.4
AACATTATTTTGTGTACACATTCGGTTATATTATAT [CACACA_site5628] | 9.24 ± 0.33
TTTTTTATTTTATTTTATTTTTATTTTTTTTTTTTT [GTGCAC_negctrl_site596] | 8.45 ± 0.64
AAAAAAAAGAAACACACACACATACACATAAATATA [CACACA_site3807] | 9.84 ± 0.38
ATATTTTTTTCATAGACACACACAATATATCTGTTT [CACACA_site8993] | 9.4 ± 0.38
ACTTTATTTTCCTGTACACACATTTGACATATTAAA [CACACA_site3378] | 9.26 ± 0.3

Sequence | gcPBM binding intensity (ln)
CACCAAACTAAATGTACACACATACATAAATATAAA [CACACA_site4765] | 9.21 ± 0.46
AAAAACAAAAAAAAAACACACAATTCTAGTTATTTT [CACACA_site2767] | 8.68 ± 0.49
ATATATTCCATAAAGGTGCTGTTAACGTGTCAACGT [GTGCAC_site9402] | 8.67 ± 0.38
TTTATGTAAAAATATAGTACATATTAAAAGATAAGA [XGTACX_site8134] | 8.66 ± 0.44
TAAGTATACACATACACACACACACTAAAAAAAAAA [CACACA_site6337] | 10 ± 0.3
TTTTACTTAAGACACACACACACAAAAAAAAAAAAA [CACACA_site6573] | 9.58 ± 0.4
TAAACATAAATATGCACACATATACAGATATTCATA [CACACA_site5471] | 9.07 ± 0.42
ATAAAATACATATAAACACACATATAAACCGACATA [CACACA_site2477] | 9.28 ± 0.38
AGTTTTTACTCTAATGGTACAGTGCAACTAATAAAT [XGTACX_site6950] | 8.6 ± 0.38
TTTAAATATTTTAATACACACACGATATGTACAAAA [CACACA_site4455] | 8.88 ± 0.36
TACAATGAAAAAATAACATGCAATTATATTTCTCTT [TGCATGCA_site833] | 8.66 ± 0.48
TATATATATATATATTGTACTAGTGCATATATATAC [XGTACX_site7926] | 9.46 ± 0.3
ACGTGATAAATAAATACATGCATAGAAAGATGCATA [TGCATGCA_site91] | 9.03 ± 0.47
ATTAAATTTCCTTGAGTGCACATTTTGTTAAAATAT | 8.69 ± 0.49
ATAACATATTTCTTTTGTACTCAAAATAAAATTAAT [XGTACX_site2479] | 8.37 ± 0.4
AATTTTGTTGAGCACACACACATACATACATACATA [CACACA_site3154] | 9.63 ± 0.35
AAATATATTTTATTTTGTACTTATGTATAAAATATA [XGTACX_site914] | 8.4 ± 0.34
TATTTTAATTTTTTTTTGTTTTTTCTAATACATGTA [CACACA_negctrl_site1399] | 8.5 ± 0.55
TGGTATTGAATTTTTTGTACACATAAAATATATATA [XGTACX_site7614] | 8.54 ± 0.33
